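Grown in 96-well plates, cells were treated for 48 hours with each compound at five concentrations. Insufficient inhibition: endpoint recorded as highest concentration tested. The concentration for 50% growth inhibition is given as GI50. TGI marks complete inhibition of growth.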
Test system: NCI-H322M lung
Test: NCI-60 cell line screen, 48 h

SMILES | GI50 [µM] | TGI [µM]
NS(=O)(=O)c1ccc(Nc2nc(N/N=C/c3ccccn3)nc(Nc3ccccc3)n2)cc1 | 0.461 | 3.92
CN1CCc2c(sc3ncnc(N/N=C/c4ccc(Cl)c(Cl)c4)c23)C1 | 14.5 | 29.1
OC1CCN(CCCOc2c3ccccc3nc3c2oc2ccc(Cl)cc23)CC1 | 1.04 | 7.79
